From publication PMC12136788
This is one part of the list.

B1: chr4:41600979:41600980:+_ENSG00000064042_ENST00000508501|hu_hu|FALSE|FALSE (ssRNA)
RNA: GGGAGUUCUACAGUCCGACGAUCUACUCUGUUGGAUGUAUCCUGGAGGUCACUCGGGUCAAAAAGUUGAGAUUCUUUAAGGCCGAGCUCUUUACAACCUCUCAAGAAUAAGAUAAUAUUGUCCAGUCCUGCAAUGGGGGUAGGCAACAGAGGAUUGAGCAUCA
B2: chr7:7679991:7679992:-_ENSG00000106399_ENST00000396682|hu_hu|hu_hu_hu_mus_False|1_28 (ssRNA)
RNA: GGGAGUUCUACAGUCCGACGAUCUGGGAUGAAUCUUUUCCAGCUUCCCCACGAAGCACACGGGCCGGUCGAUAUACUGUGGUAACAUGCUGGCGUUGACGCGCGCUCUGGGCAAGUGCAUUAUGUCCUCCAUGAUUAUGGUCCCAACAGAGGAUUGAGCAUCA
B3: chr11:46405157:46405158:+_ENSG00000110492_ENST00000395566|hu_hu|hu_hu_hu_mus_False|8_88 (ssRNA)
RNA: GGGAGUUCUACAGUCCGACGAUCCCCUCCCCACUUUGGGCACUUGGUGAGAGGGACAGAGGACAGGCGUGAUUGACAGAGCUGACAGGAAGACAAAAGGCACUGGUGGGUUAUAUCUUGGGCCUGUGAGAGGGAGGGGCUCCGCAACAGAGGAUUGAGCAUCA
B4: chr4:95690885:95690886:+_ENSMUSG00000028572_ENSMUST00000156910|mus_mus|mus_mus_mus_hu_False|68_98 (ssRNA)
RNA: GGGAGUUCUACAGUCCGACGAUCUUUAGAAAAUGUUAAUGUUAAAUCUAAAAUAUUUUCAAAGGCUAGUCUUAUUUUACCAGAAGUCACAGGCAAGCAGACACUACAAGAAUAUAUGAAAAUGAAACUCAACAAUAUAACUGUCAACAGAGGAUUGAGCAUCA
B5: chr7:141441981:141441982:+_ENSG00000106028_ENST00000265304|hu_mus|hu_hu_hu_mus_False|8_38 (ssRNA)
RNA: GGGAGUUCUACAGUCCGACGAUCCUCAUGUCUUACAAACUGACGAAAUACCUGUAACACAGGUCUUCGAAACAUGGCUUCUGUUUUUCUUACAACCAGUCUAAUCUGCUUUUCCUAAAGGAAAGAAUAACCCGAGCAAAAUGACAACAGAGGAUUGAGCAUCA
B6: chr16:17038481:17038482:+_ENSMUSG00000063358_ENSMUST00000069107|mus_hu|FALSE|FALSE (ssRNA)
RNA: GGGAGUUCUACAGUCCGACGAUCCUUGUCCUGACAAAUUUAAGAUCUGUAUCCUGGCUGGAAUCUAGCAGUCUCUUCAAAAAUUAGUUCUUUGAGCUUUUCCUUAGGCAAGUCAUCCAAUUCCAUGUCGAACUUGAAUGGUGCCAACAGAGGAUUGAGCAUCA
B7: chr8:79514811:79514812:+_ENSG00000171033_ENST00000352966|hu_hu|FALSE|FALSE (ssRNA)
RNA: GGGAGUUCUACAGUCCGACGAUCCACCAAACAGACUGAAUUCAGGUGAUAUUCACAUUAAUGGAUAUUUUCAAAUGUCUCUAUAAUAAAGCAAUGGAGUCUUGAUGAAUCUGUUAGACUUAAUCAACUCAUCAACAUACAAUGCAACAGAGGAUUGAGCAUCA
B8: 107689004_107690831_804_CDS_ENSMUSG00000042590_ENSMUST00000080856|mouse|control|control (ssRNA)
RNA: GGGAGUUCUACAGUCCGACGAUCCUCCAUAUUCUUAUGAGGUUCCACAAAUCCAUUCACAGUUAACUUCCGCAGCACUUUUAACGAUAGCAGUGUUCGCUCUAGUGAACUCAGAACCGCAGCUUCAUUGCCAGAAGAAACGUGCAACAGAGGAUUGAGCAUCA
B9: chr12:42180722:42180723:-_ENSMUSG00000036295_ENSMUST00000043884|mus_hu|mus_mus_mus_hu_True|18_108 (ssRNA)
RNA: GGGAGUUCUACAGUCCGACGAUCCUGUAGGAGCAGAAUCUGUGUGUUAGCUGGCAAUCUGGCUGGGAAAGUUAAAAGACCUAAAUCAUUACAAUCCACUGUAGAUGCUUCCAUAUAGAUGGAUCUCGGUGUAAACCAAGGCCUCAACAGAGGAUUGAGCAUCA
B10: chrX:100668114:100668115:+_ENSG00000126945_ENST00000316594|hu_mus|motif|central (ssRNA)
RNA: GGGAGUUCUACAGUCCGACGAUCUCCCAUCAUCUGGCUACCGUAAGCACCACCACUUGCCCCUGCUGUAGAAUUCAAAAAGAGCUCGGCAUAGCUAUGAUCAUAAGCUCCUCCACUUGUCCCUGCGGUAGAAUUCAAGAAGAGCAACAGAGGAUUGAGCAUCA
B11: 153482016_153483098_2329_CDS_ENSG00000157827_ENST00000288670|human|control|control (ssRNA)
RNA: GGGAGUUCUACAGUCCGACGAUCAAUGGCAGGUCCUUGGGCUUUUGUCUUGAAUAUUUCCUCAAAUUCAUCCACAUUUAAAUCCUCCAGAAUUCGCUCAUCAUCAAUUUCAUUGAAGACUGUGCCAUUGAUCUGAUUGGGCUUCAACAGAGGAUUGAGCAUCA
B12: chr17:27613171:27613172:-_ENSG00000108256_ENST00000225388|hu_mus|FALSE|FALSE (ssRNA)
RNA: GGGAGUUCUACAGUCCGACGAUCCGUAGGAGAGGCCAGGGGAUUUUGAUUUUCUAUUUCGUAGUCCUUUGAGAGAAACACUAAAGCACCUUGACUACUGGUGUCUGCUUUUUGCAGGUCACCUAUAUGACUGGGGUCCAAGGACAACAGAGGAUUGAGCAUCA
B13: chr14:76906579:76906580:+_ENSMUSG00000022010_ENSMUST00000022587|mus_mus|FALSE|FALSE (ssRNA)
RNA: GGGAGUUCUACAGUCCGACGAUCGGGGAGAAAGCGAGAACAGCGUGUGAGUCUCACGUCUCUUUCGUAGACAGCAAUGAAAUGGGUGACUGUGGAGGCGGCUUCUCUCUAGCACAUCUCUUCGGUCUGUUCAGUUCAGACAGCCAACAGAGGAUUGAGCAUCA
B14: chr4:141323876:141323877:-_ENSMUSG00000040697_ENSMUST00000038014|mus_mus|FALSE|FALSE (ssRNA)
RNA: GGGAGUUCUACAGUCCGACGAUCAGUCAGGUCAGGGAGCACAGCUUCUGAAGACAGAAAUGCUGGAUCCUUCCGCAGCUGGUCAAGAUAACCCAAAAGGACGAACUUAUCGCUCUCACUGCCGGUCCAGGGAUCCUCCAGGGUCAACAGAGGAUUGAGCAUCA

molecular target: T1, UNK ZnF1-3 (human, UniProt Q9C0B0 31-174); assay: nsRBNS (natural sequence RNA bind-n-seq); RBNS binding buffer (assumed for nsRBNS): 25 mM Tris pH 7.5, 150 mM KCl, 3 mM MgCl2, 0.01% Triton X-100, 500 ug/ml BSA, 20 U/ml SUPERase-In, 4 C; UNK is unkempt and MSI1 is Musashi-1; names of the RNAs are library labels; protein concentration not given here; high values mean tight binding
T1 sequence: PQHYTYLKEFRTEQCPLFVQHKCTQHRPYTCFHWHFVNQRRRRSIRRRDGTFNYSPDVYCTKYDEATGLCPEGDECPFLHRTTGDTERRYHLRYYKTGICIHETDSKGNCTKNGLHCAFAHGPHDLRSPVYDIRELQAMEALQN

Binder | binding signal
B1 | 0.835 enrichment R
B2 | 0.658 enrichment R
B3 | 2.81 enrichment R
B4 | 1.7 enrichment R
B5 | 0.782 enrichment R
B6 | 0.558 enrichment R
B7 | 1.04 enrichment R
B8 | 0.733 enrichment R
B9 | 0.8 enrichment R
B10 | 2.07 enrichment R
B11 | 0.735 enrichment R
B12 | 1.23 enrichment R
B13 | 0.932 enrichment R
B14 | 1.13 enrichment R
